Results taken from the supplement of paper PMC10126150.
Values marked as one replicate rest on one cluster of the flow cell; about a third of the high ones do not repeat.

System: ATP
Assay: switch fluorescence ratio, 500 uM ATP over buffer (Cy3 cluster intensity, sum of 5 cycles each) (fold (ratio)); higher = stronger signal-on switching upon ATP binding; sequences stand for … in TCGTCGGCAGCGTCAGATGTGTATAAGAGACAGTTTTTTTTTTTTTTTTTTTTTTTTT…TC
Settings: aptamer strand: ATP DNA aptamer (quencher-CACCTGGGGGAGTATTGCGGAGGAAGG + anchor), 100 nM annealed; ATP concentration: 500 uM; one replicate
How it was run: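 Clusters carrying Cy3-labelled switching strands on a modified Illumina MiSeq flow-cell were annealed to 100 nM quencher-labelled ATP aptamer and imaged in selection buffer. They were imaged again after 15 min with 500 uM ATP at 22 °C, over five buffer/ATP cycles with NaOH stripping and re-annealing in between. For each cluster, the fluorescence ratio is the summed Cy3 intensity of the target cycles divided by that of the buffer cycles, averaged per switch-domain sequence. Clusters outside 100-1000 RFU were left out.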
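Further: ATP exposure 15 min at 22 °C before imaging.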

Row | Sequence | switch fluorescence ratio
1 | ACCACTTCA | 1.11
2 | GGGTAGCGGC | 1.04
3 | CATTCAGTTG | 0.998
4 | GCATGTTAGT | 0.97
5 | ACGAGTCTGA | 1.07
6 | AGTAGTGCCT | 1
7 | AGACCGGGTG | 1.19
8 | ATCTCATGTG | 0.997
9 | AACGTCATGG | 1.09
10 | GGGTTCGACC | 1.01
11 | AAAGTGGCAC | 1
12 | GGTGTTATCT | 0.975
13 | AGGCCCCGGA | 1.03
14 | TAAGTTCGGT | 0.966
15 | TACACTGCTG | 1.03
16 | ATCAGAGTTA | 1.04
17 | CCAGCCGTTT | 0.994
18 | GTGCGTGTAA | 0.988
19 | ACAAGCCGGC | 0.999
20 | TCCCGGCTGG | 0.981
21 | GCAGAGTGAG | 0.968
22 | AGTGACCGGG | 1.03
23 | CTGACGGAAC | 4.43
24 | TCGCGGATGC | 1.4
25 | GGCGGAGCGA | 1.04
26 | TGTTAGCGA | 1.05

Row | Sequence | switch fluorescence ratio
27 | CATAAGAAC | 1
28 | GCGTCGCGGG | 0.995
29 | AGAGCGGGTG | 1.09
30 | GTGGAGTGTG | 1.02
31 | TTATTGGATA | 0.967
32 | GGACAGAAGC | 1.01
33 | GCACGCCTAA | 0.993
34 | AACTGAGGAG | 0.935
35 | GTGAGGTTCT | 1.02
36 | CATCAAAGGT | 0.985
37 | GGGGCATGG | 1.05
38 | GACCGGAGAT | 1.04
39 | CAGGGTGCA | 1.05
40 | TATGTATTCA | 1.04
41 | CAATTGATAC | 1.04
42 | CCTTACTTTC | 1.1
43 | TGGAAATCTG | 1.02
44 | CCGGGGAGAA | 1.17
45 | ATCGTAAATA | 0.993
46 | CTCAACAGCC | 1.09
47 | TTCGCAAAGG | 2.02
48 | TGAGCTCATA | 1.06
49 | TAAACAAGCA | 1.05
50 | AGGACATGGT | 0.988
51 | GCAGTGTTGA | 0.996
52 | AATATCAGTG | 0.988

Row | Sequence | switch fluorescence ratio
53 | ACAAGGTCGA | 1.03
54 | CGGGTATCAT | 1
55 | TCCGCCTCGG | 1.02
56 | GGCTTTCACT | 0.949
57 | AAACGTTCGC | 1.25
58 | TATTTCAAGA | 1.03
59 | TGGGTAAGCG | 0.976
60 | GTAGAAAGA | 0.985
61 | TGGGCGGTCG | 1.01
62 | GTATATAATA | 1.02
63 | TCTTTTGCAG | 1.03
64 | TTATTCCCTG | 1.02
65 | ACAAGTAGAG | 0.985
66 | GTGTACCCCT | 1.09
67 | CATAACTTGA | 0.974
68 | ATGGGAAGAG | 1.03
69 | CCACGCAGGT | 1.76
70 | AGACCTGAGC | 1.1
71 | TGCCGACGTG | 0.973
72 | ATTTAGTCCT | 1.05
73 | CAGTTGGCTT | 0.979
74 | CGCGGTAGCT | 0.985
75 | TATATTTCGC | 1.01
76 | GCAGAGCCTA | 1.04
77 | TAGCTGGTCA | 0.977
78 | GGAACTTTAA | 1.03

Row | Sequence | switch fluorescence ratio
79 | TGTTTCAGTT | 0.973
80 | TCCATCGCTC | 3.21
81 | ATTCTTACTT | 0.962
82 | TACGTTCCT | 1.41
83 | ACGGATATTT | 1.03
84 | TGTGTCGAAA | 0.998
85 | TTTTCACGGC | 1.04
86 | ATCAGAGTTG | 0.991
87 | TACAACCTGA | 1.38
88 | TTCTTAGGCA | 1
89 | ACTTTTGTTG | 0.947
90 | TTTGAAGGTC | 1
91 | TAATAACAAC | 0.985
92 | GAGAGATAAG | 1
93 | GAGCGGGACC | 1.02
94 | ACAGCCTGAA | 0.985
95 | GCCGTAGCCG | 1.05
96 | ACCGGCAAAT | 1.05
97 | GGGTGCGCAC | 1.08
98 | CAATTGATGT | 0.99
99 | TTAGAACCGG | 1.02
100 | TGCAATCCAA | 1.09
101 | GGTCACATG | 1.01
102 | GTTGAAAGCA | 1.04
103 | ACCATTTCTC | 1.05
104 | GTCGGGCTTA | 0.967

Row | Sequence | switch fluorescence ratio
105 | ATAGAGGGC | 1.06
106 | ATTGCTTTT | 1.06
107 | TGGCCATATG | 0.989
108 | TATCACAAGG | 1.04
109 | GCTCCGAGAA | 3.79
110 | TTAACGAGAA | 1.02
111 | ATTGGGCCGA | 1.01
112 | TTCGAACGTT | 1.03
113 | GATGGAATGC | 2.75
114 | GTGTTTCTGA | 1
115 | GCGGCTAGGC | 1.04
116 | GCCCTCACAC | 1.12
117 | CGTCCTTAAC | 1.17
118 | CGCATTATT | 1.77
119 | CCTAAAACGG | 0.994
120 | TCTCGTTACT | 1.06
121 | TCGGGAAGTT | 1.04
122 | CGTATTATCG | 0.903
123 | CTGGGGTTT | 0.975
124 | AGGTGGTATA | 1.02
125 | AAGGGCATGC | 0.997
126 | ATCGTATACG | 1.08
127 | CGGAGTTAAA | 1.06
128 | ACGCGGGACG | 1.04
129 | GGTCATAAAA | 1.02
130 | TTAGACATAA | 1.02

Row | Sequence | switch fluorescence ratio
131 | TAAAATAATT | 1.04
132 | CAAAAAAGTT | 1
133 | ATCGCTTGCA | 0.996
134 | CACATCGGGA | 1.03
135 | GCTTAACTAG | 1.01
136 | ATCGGTAGGG | 1
137 | CAATGTTACA | 0.993
138 | GATATCGCTC | 1.07
139 | ATCATAATT | 1.01
140 | CAGTCATCTG | 0.991
141 | ATCGGTGTCT | 0.948
142 | TGAGGACATA | 0.988
143 | CACCCAATCG | 1.18
144 | TGAAAAGCAG | 1
145 | ACGAAAGAAA | 0.991
146 | ACGATTACAT | 1.14
147 | GGCCTTTGTC | 1.04
148 | AAACGGTGGT | 0.986
149 | TTAATATGTC | 1.03
150 | ACCCTCTAGC | 1.08
151 | TCTAGAATTG | 0.963
152 | CGCCTTACCT | 1.19
153 | TGACGGTCCT | 0.997
